{"source": "PubChem BioAssay AID881", "about": "(National Center for Advancing Translational Sciences (NCATS), 2007)", "note": "The whole screen tested about 110,000 compounds, of which about 610 (0.55%) were called active. The inconclusive results got no clear call from the source; some entries with a clear call stand among them for comparison. Calls follow the shape of the dose curve; as a rule, active = well fitted inhibition curve with a large enough effect; inconclusive = small, poorly fitted or top-dose-only effect; inactive = no such curve, though single readings can be large or run the other way. Potencies beside an inconclusive call are fits to weak or partial responses and may not hold up. Potency is read from the fitted curve at half-maximal effect; tags tell the direction and shape of the fitted curve."}
{"target": "Polyunsaturated fatty acid lipoxygenase ALOX15B (Homo sapiens) (UniProt O15296)", "sequence (O15296 whole entry, looked up)": "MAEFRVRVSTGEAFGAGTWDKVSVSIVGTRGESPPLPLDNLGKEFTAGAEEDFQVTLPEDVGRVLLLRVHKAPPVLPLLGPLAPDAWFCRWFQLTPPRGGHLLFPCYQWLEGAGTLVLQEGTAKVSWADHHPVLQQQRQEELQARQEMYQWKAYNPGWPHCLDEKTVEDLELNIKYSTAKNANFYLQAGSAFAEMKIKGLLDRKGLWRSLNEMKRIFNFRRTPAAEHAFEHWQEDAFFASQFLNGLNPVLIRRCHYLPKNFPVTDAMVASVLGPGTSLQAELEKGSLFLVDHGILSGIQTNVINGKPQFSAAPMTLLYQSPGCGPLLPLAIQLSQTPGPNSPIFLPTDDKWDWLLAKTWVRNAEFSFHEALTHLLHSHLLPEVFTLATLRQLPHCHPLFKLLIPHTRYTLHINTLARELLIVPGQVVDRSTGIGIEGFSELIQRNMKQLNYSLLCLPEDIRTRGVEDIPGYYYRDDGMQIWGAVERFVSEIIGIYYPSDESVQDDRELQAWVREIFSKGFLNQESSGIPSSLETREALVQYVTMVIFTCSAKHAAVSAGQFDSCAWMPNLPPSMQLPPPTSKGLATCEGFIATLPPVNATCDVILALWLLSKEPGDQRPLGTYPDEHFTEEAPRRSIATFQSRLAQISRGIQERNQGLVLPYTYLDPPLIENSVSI", "assay": "qHTS Assay for Inhibitors of 15-hLO-2 (15-human lipoxygenase 2); also: nearly all actives have a fitted effect of over 60% in size", "details": "purified 15hLO-2, xylenol orange hydroperoxide absorbance; series mostly up to 57.1 µM", "summary_of_the_method": "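Read-out: hydroperoxide product oxidises ferrous iron, measured as xylenol orange complex via the 573-to-405 nm absorbance ratio after 30 min. Reaction: 50 nM enzyme, 15 min compound preincubation, 45 uM arachidonic acid, 90 min RT, Hepes pH 7.5 with Triton X-100.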"}
{"compound": "c1cncc(CNc2nc(-c3ccoc3)nc3ccccc23)c1", "Potency": "inactive"}
{"compound": "Cc1ccc(-c2cc(C(=O)NCc3cccs3)no2)cc1", "Potency": "inactive"}
{"compound": "COc1ccc2c(c1OC)C(Cc1ccccc1)N1CCc3cc4c(cc3C1C2)OCO4", "note": "(stereo not given)", "Potency": "inactive"}
{"compound": "CC(C)[C@H]1C(=O)C(C(N)=O)=C(O)[C@]2(O)C(=O)C3=C(O)c4c(O)ccc(N(C)C)c4C[C@H]3C[C@@H]12", "Potency": "inactive"}
{"compound": "CC(C)CC(C(=O)Nc1oc(-c2ccco2)c(-c2ccco2)c1C#N)N1C(=O)c2ccccc2C1=O", "note": "(stereo not given)", "Potency": "inconclusive: 12.6 µM [inhibitor, partial curve, poor fit]"}
{"compound": "CCOC(=O)CCc1c(C)nc(SCCCn2c(=O)[nH]c3ccccc32)c(C#N)c1C", "Potency": "inconclusive: 25.1 µM [inhibitor, single point]"}
{"compound": "COc1ccc(-c2nnc(SCC(=O)Nc3cccc(Cl)c3)o2)cc1", "Potency": "inactive"}
{"compound": "Fc1ccc(/C=N/n2c(-c3cccs3)n[nH]c2=S)cc1", "Potency": "inconclusive: 25.1 µM [inhibitor, partial curve]"}
{"compound": "CCOC(=O)C1=C(N)n2c(s/c(=C/c3ccco3)c2=O)=C(C(=O)OC)C1c1ccco1", "note": "(stereo not given)", "Potency": "inconclusive: 20 µM [inhibitor, partial curve]"}
{"compound": "CCOc1cc(/C=C2/C(=O)N(c3ccccc3)N=C2C)ccc1OC(=O)c1cccs1", "Potency": "inconclusive: 3.98 µM [inhibitor, full curve]"}
{"compound": "COC(=O)c1[nH]c2cc(OC)c(OC)cc2c1NC(=O)Oc1ccccc1", "Potency": "inconclusive: 25.1 µM [inhibitor, single point]"}
{"compound": "N#Cc1c(SCC(=O)Nc2nccs2)nc2c(c1-c1ccco1)CCCC2", "Potency": "inconclusive: 20 µM [inhibitor, partial curve]"}
{"compound": "O=C(Nc1ccc(Cl)cn1)c1ccc(COCC(F)(F)C(F)F)o1", "Potency": "inconclusive: 7.94 µM [inhibitor, single point]"}
{"compound": "COc1cccc(N=c2oc3c(C)ncc(CO)c3cc2C(N)=O)c1", "Potency": "inactive"}
{"compound": "N#CC1=C(N)N(c2ccccc2)C(c2cccc([N+](=O)[O-])c2)C1(C#N)C#N", "note": "(stereo not given)", "Potency": "inconclusive: 39.8 µM [inhibitor, single point]"}
{"compound": "Cc1ccc(O)c(N=Nc2ccccc2)n1", "Potency": "inconclusive: 31.6 µM [inhibitor, partial curve]"}
{"compound": "COc1ccc2c(c1)OC/C(=C\\c1ccc(OC)c(O)c1)C2=O", "Potency": "inconclusive: 31.6 µM [inhibitor, single point]"}
{"compound": "CCOC(=O)C1=C(Cc2ccc(OC)cc2)C(=O)c2ccccc2C1=O", "Potency": "active: 12.6 µM"}
{"compound": "COc1ccc(/C=C2\\CCOC2=O)cc1", "Potency": "inconclusive: 0.316 µM [inhibitor, full curve, poor fit]"}
{"compound": "COc1ccccc1OC1=NS(=O)(=O)c2ccccc21", "Potency": "inconclusive: 2 µM [inhibitor, full curve]"}
{"compound": "N#C/C(C(=O)Oc1ccccc1)=C1/Nc2ccccc2-c2ccccc21", "Potency": "inconclusive: 15.8 µM [inhibitor, partial curve]"}
{"compound": "CC1=CC(C)(C)Nc2ccc(C)cc21", "Potency": "inconclusive: 15.8 µM [inhibitor, partial curve]"}
{"compound": "COc1ccc(OC)c(C2CC(=O)N3CN(c4ccc(C)c(Cl)c4)CSC3=C2C#N)c1", "note": "(stereo not given)", "Potency": "inconclusive: 39.8 µM [inhibitor, single point]"}
{"compound": "O=C(CSc1ccc2nnc(-c3ccc(F)cc3)n2n1)NCC1CCCO1", "note": "(stereo not given)", "Potency": "inconclusive: 39.8 µM [inhibitor, single point]"}
{"compound": "C=C[C@](C)(O)CCC1C(=C)CC(O)C2C(C)(C)CCCC12C", "note": "(stereo not given in full)", "Potency": "inactive"}
{"compound": "CCOc1cc(C2Nc3cccc4cccc(c34)N2)ccc1O", "Potency": "inconclusive: 3.98 µM [inhibitor, partial curve]"}
{"compound": "Cc1cnc(CNc2ncncc2-c2ccoc2)cn1", "Potency": "inactive"}
{"compound": "Fc1ccc(-n2[nH]nnc2=S)cc1N1CCCC1", "Potency": "inconclusive: 39.8 µM [inhibitor, single point]"}
{"compound": "CC(C)(C)c1ccc2c(c1)C(c1ccc3c(c1)OCO3)CC(=O)O2", "note": "(stereo not given)", "Potency": "inconclusive: 50.1 µM [inhibitor, single point]"}
{"compound": "CCOc1cccc(CN2CCN(c3cccc(C(F)(F)F)c3)CC2)c1O", "Potency": "inactive"}
{"compound": "CC(=O)NC(=S)c1c(N)n(Cc2ccccc2)c(=O)n(C)c1=O", "Potency": "inconclusive: 15.8 µM [inhibitor, partial curve]"}
{"compound": "COCCN=C1Sc2nc3c(C)cccc3cc2CN1Cc1ccco1", "Potency": "inconclusive: 25.1 µM [inhibitor, single point]"}
{"compound": "N#CCC(=O)N/N=C/c1ccc(Sc2nc3ccccc3s2)o1", "Potency": "inconclusive: 25.1 µM [inhibitor, single point]"}
{"compound": "O=C(O)c1ccccc1-c1ccccc1C(=O)Nc1ccccc1", "Potency": "inconclusive: 0.199 µM [inhibitor, full curve, poor fit]"}
{"compound": "Fc1ccccc1NC(=S)N/N=C/c1ccccc1Br", "Potency": "inconclusive: 7.94 µM [inhibitor, full curve, poor fit]"}
{"compound": "CC1(C)Cc2c(C#N)c(N)sc(=S)c2CO1", "Potency": "inconclusive: 15.8 µM [inhibitor, partial curve]"}
{"compound": "O=C(CC1Nc2ccccc2NC1=O)NCc1cccnc1", "note": "(stereo not given)", "Potency": "inactive"}
{"compound": "CN=C1N[C@H](c2ccccc2)N(c2ccccc2)S1", "Potency": "active: 25.1 µM"}
{"compound": "O=C(c1ccccc1F)N1CCN(S(=O)(=O)c2ccc(S(=O)(=O)N3CCCCC3)cc2)CC1", "Potency": "inconclusive: 31.6 µM [inhibitor, single point]"}
{"compound": "COc1ccc(N2CCN(Cc3cc(=O)oc4ccc5ccccc5c34)CC2)cc1", "Potency": "inconclusive: 31.6 µM [inhibitor, single point]"}
{"compound": "COc1cccc(C(=O)NC(=S)Nc2ccc(N3CCCC3)cc2)c1", "Potency": "active: 12.6 µM"}
{"compound": "N[C@@H]1C(O)OC(CO)C(O)C1O", "note": "(stereo not given in full)", "Potency": "inactive"}
{"compound": "Cc1sc(NC(=O)c2cccs2)c(C(N)=O)c1C", "Potency": "inactive"}
{"compound": "CC(=O)C1=C(C)NC(SCC(=O)c2ccccc2)=C(C#N)C1CC(C)C", "note": "(stereo not given)", "Potency": "inconclusive: 25.1 µM [inhibitor, partial curve]"}
{"compound": "O=C(NCc1ccco1)c1ccc(Cn2c(=O)c3sccc3n(Cc3ccc(F)cc3)c2=O)cc1", "Potency": "inactive"}
{"compound": "CC(=O)Nc1nonc1-c1nc2ccccc2n1CC1CC1", "Potency": "inactive"}
{"compound": "O=C1CC(N2CCN(c3ccc(O)cc3)CC2)C(=O)N1Cc1cccs1", "note": "(stereo not given)", "Potency": "inconclusive: 20 µM [inhibitor, partial curve]"}
{"compound": "COc1ccc(CCNS(=O)(=O)c2ccc3c(c2)CCN3C(=O)C2CC2)cc1OC", "Potency": "inactive"}
{"compound": "Oc1ccccc1NCC(O)Cn1ccc2ccccc21", "note": "(stereo not given)", "Potency": "active: 12.6 µM"}
{"compound": "C=CCn1c(SCC(=O)c2ccc(CNC(C)=O)o2)nc2scc(C3CC3)c2c1=O", "Potency": "inconclusive: 12.6 µM [inhibitor, partial curve]"}
{"compound": "COc1ccc(-c2nc3cc(NC(=O)Cc4ccc(OC)c(OC)c4)ccc3o2)cc1", "Potency": "inconclusive: 39.8 µM [inhibitor, single point]"}
{"compound": "O=C(O)c1cc(O)c2c(c1)C(=O)c1cccc(O)c1C2=O", "Potency": "inconclusive: 25.1 µM [inhibitor, partial curve, poor fit]"}
{"compound": "Cc1ccc(-c2ccc(/C=N/N3C(=O)C4C5C=CC(CC5)C4C3=O)o2)c([N+](=O)[O-])c1", "note": "(stereo not given)", "Potency": "inactive"}
{"compound": "Cn1c(=O)c2c(n(Cc3ccccc3)c1=O)NC(=O)C2CC(=O)N1CCc2ccccc2C1", "note": "(stereo not given)", "Potency": "inconclusive: 15.8 µM [inhibitor, partial curve]"}
{"compound": "CC(C)C(=O)Nc1cccc(NC(=S)NC(=O)c2ccc(Cl)cc2)c1", "Potency": "inconclusive: 7.94 µM [inhibitor, partial curve]"}
{"compound": "Cc1cc(NC(=O)CSc2ccc(-c3nc4cc(C)c(C)cc4[nH]3)cn2)no1", "Potency": "inactive"}
{"compound": "CC(C)NC(=O)c1cc(-c2ccco2)nn1-c1ccc(Cl)cc1", "Potency": "inconclusive: 7.94 µM [inhibitor, partial curve]"}
{"compound": "COc1cc2c(cc1OC)C(c1ccccc1O)N(C1CC(=O)N(c3ccccc3)C1=O)CC2", "note": "(stereo not given)", "Potency": "inconclusive: 10 µM [inhibitor, partial curve]"}
{"compound": "c1ccc2sc(SSc3nc4ccccc4s3)nc2c1", "Potency": "inconclusive: 10 µM [inhibitor, full curve]"}
{"compound": "Cc1ccc(SCCNC(=S)Nc2ccccc2)cc1", "Potency": "inconclusive: 25.1 µM [inhibitor, partial curve]"}
{"compound": "CCCn1c(-c2ccc(F)cc2)nc2c(NCCN3CCSCC3)nc(C)nc21", "Potency": "inactive"}
{"compound": "COc1cccc2c1C(=O)c1c(O)c3c(c(O)c1C2=O)C[C@@](O)(C(=O)CO)C[C@@H]3O[C@H]1C[C@H](N)[C@H](O)[C@H](C)O1", "Potency": "inactive"}
{"compound": "O=C(O)c1cc(S(=O)(=O)N2CCOCC2)ccc1N1CCOCC1", "Potency": "inactive"}
{"compound": "CN(C)c1ccc(NC(=O)Nc2cccc(Cl)c2)cc1", "Potency": "inconclusive: 12.6 µM [inhibitor, partial curve]"}
{"compound": "COC(=O)\\C(C(C)=O)=C(/C=C/C=C/N(C)C)N(C)C", "Potency": "inconclusive: 25.1 µM [inhibitor, partial curve]"}
{"compound": "N#CC1=C(N)SC(N)=C(C#N)C1c1cccc(Oc2ccccc2)c1", "Potency": "inconclusive: 31.6 µM [inhibitor, single point]"}
{"compound": "COC(=O)c1ccccc1NC(=S)NC(=O)COc1ccccc1", "Potency": "inconclusive: 39.8 µM [inhibitor, single point]"}
{"compound": "CC(C)(C)C1CCc2c(sc(N)c2C(N)=O)C1", "note": "(stereo not given)", "Potency": "inconclusive: 12.6 µM [inhibitor, partial curve]"}
{"compound": "Cc1ccc(-n2nc3ccc(NC(=O)/C=C/c4ccco4)cc3n2)cc1C", "Potency": "inconclusive: 20 µM [inhibitor, single point]"}
{"compound": "O=C(NNc1ccc([N+](=O)[O-])cc1)C1CC2CCCC(C1)C2=O", "note": "(stereo not given)", "Potency": "inconclusive: 12.6 µM [inhibitor, partial curve]"}
